Read counts are not given, so values of variants with three or more changes are uncertain.

Sequences and labels used below:
B1: CPEB3 Ribozyme (parent)
chain: UAACAGGGGGCCACAGCAGAAGCGUUCACGUCGCAGCCCCUGUCAGAUUCUGGUGAAUCUGCGAAUUCUGCUGUAUAUCUC

In this series the parent is B1. The series can be described thus: self-cleavage, relative activity (ratio to wild type); higher = more cleavage; in vitro, sequencing. The method in brief:
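Libraries of CPEB3 self-cleaving ribozyme mutants came from rounds of error-prone PCR and carried barcodes, which DNA sequencing matched to variants. In vitro transcription used T7 RNA polymerase at 37°C for 5 hours, with a further 15 min in DNase I before EDTA stopped the reaction; the ribozymes cleaved during both steps. The RNA was reverse transcribed with template switching and sequenced on Illumina. Relative activity is the cleaved/total read fraction of a variant divided by that of the unmutated ribozyme, averaged over three batches with at least 5 reads.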
In the case of A18G U54C G73A, the self-cleavage is 1.09. In the case of A18G U25C U43C U78C U80C, the self-cleavage worked out at 0.1. Consider A18G A28C U80C, for which the self-cleavage stood at 0.16. On to A18G U43A U49C U78A U80C, for which the self-cleavage came to 0.34.

Consider A18G C59A U60C A64G U67C, for which the self-cleavage was 0.09. As to A18G A35G U41C A45U U72C, the self-cleavage stood at 0.38. A18G U43A U78A: the self-cleavage was 0.77. Regarding A18U A20G U41C C79U, the self-cleavage was 0.24. With A18G U31C G33A G42A A57G U72G, the self-cleavage came to 0.09. The result for A18G C23U G46A reads 0.33; that for A18G G19A C27U U41C U54C U69C, 0.11.

For the variant A18G U25A U67C U76C, the self-cleavage was 0.06.

Consider A18G A35G A45G A47U U48C A75C, for which the self-cleavage was 0.26. As to A18G A28G U80A, the self-cleavage stood at 0.37. With A18G U43C U58C U74A, the self-cleavage worked out at 0.23. The result for A18G U31C U60C C62U reads 0.12; that for A18G A35U U51C U69C, 0.54.

As for A18G G53U U54C U78C, the self-cleavage was found to be 0.2.

Consider A18G A45U U51A A64U U72C, for which the self-cleavage was 0.23.

With A18U G19A G33U U72A, the self-cleavage stood at 0.03. Consider A18G C23A A56G U72C, for which the self-cleavage is 0.22. In the case of A18G U54C A57G A65G U80A, the self-cleavage amounted to 0.06.

Turning to A18G U26A U69G, the self-cleavage is 0.3. For the variant A18G U41C U66C U72C, the self-cleavage was found to be 0.22. With A18G C39A U43C U72C, the self-cleavage is 0.04. For A18G C34U A47G U74C the value was 0.34; for A18G U26C U41A, 0.05. The result for A18G A35G U69A reads 0.99; that for A18G C32U U54A A57G U78C, 0.07. Regarding A18G U25C A45U U60C A64U A75G A77G, the self-cleavage came to 0.08. In the case of A18G U31C U48C U58C A65G U69A G70A, the self-cleavage was found to be 0.01.

A18G G22C U49C C81A: the self-cleavage was found to be 0.87. As for A18G U41C A77U, the self-cleavage stood at 0.58. On to A18G U25C G30U U41C U54G A64U, for which the self-cleavage turned out to be 0.22. For the variant A18U A45U U49C A56G, the self-cleavage amounted to 0.16.

As for A18G G24A A65G U69A, the self-cleavage was 0.05. For A18G U26C U51C the value was 0.13. Take A18G A35U U60A: the self-cleavage is 0.1. As to A18G U25C A35G U69G U78A, the self-cleavage came out at 0.17. On to A18U G24A U31A C50G A56G, for which the self-cleavage was found to be 0.08. For the variant A18G C38U G42A U43C A45G U48A, the self-cleavage turned out to be 0. The result for A18U G30C U80G reads 0.43. For the variant A18G U43C A47U U51C A65U, the self-cleavage stood at 0.02. Regarding A18G U66C U72A C79A, the self-cleavage amounted to 0.27.

As to A18G U51C A77U, the self-cleavage is 0.6.

In the case of A18U A21G U26C U74C, the self-cleavage was 0.31. For the variant A18G U49C A56G C59U U80A, the self-cleavage was 0.5. Consider A18G U41A A56G U78C, for which the self-cleavage came to 0.08. A18G A65G U72C: the self-cleavage came to 0.26.

On to A18U C34G U60C C81A, for which the self-cleavage was determined as 0.12. For A18G U58C U60C U67A the value was 0.13. The result for A18U C29A U54C A57U U69A U78C reads 0.1; that for A18G A20U U26C C39A, 0.13. A18G G19A A64G: the self-cleavage turned out to be 0.24.

With A18U A65U U80C, the self-cleavage is 0.22. The result for A18U C62G U69G reads 0.19. For A18U G53A U58C U72A the value was 0.15. In the case of A18G G33C U41C A47G U51A A57U U78C, the self-cleavage is 0.06. With A18G U26A A35U U41C U60A A65G U72C, the self-cleavage came to 0.07. For A18U A20U A56G A77G, the self-cleavage amounted to 0.05. Take A18G U41A G55A U66C U72C: the self-cleavage amounted to 0.41. A18G G24A U41G A45U: the self-cleavage worked out at 0.38. Consider A18U A21G U43C U48C, for which the self-cleavage turned out to be 0.06. The result for A18G A21G U41A G52A reads 0.34; that for A18G U41A U51C, 0.22. For the variant A18G G30A C38A U49C U51C U72A, the self-cleavage came out at 0.06. In the case of A18G C23U U31C U49C, the self-cleavage came out at 0.06. Take A18G A64G C79A U80C: the self-cleavage came out at 1.07. As to A18G A21G U25C A28U U51C A56G U67C, the self-cleavage stood at 0.02. For A18G U25A A35G A56U the value was 0.1; for A18G U25A U49C U78C, 0.2.

With A18U U25C A28G A35G U48C U51C U66C, the self-cleavage was determined as 0.11.

In the case of A18U A28G G30A G46U U66C U78G, the self-cleavage came out at 0.05. As for A18G U25C G36C U41A A57U, the self-cleavage came to 0.07.

As to A18G U26A C29U A35G A56C G63A, the self-cleavage was determined as 0.29. For A18G C32A A45G U49A U51A A64U the value was 0.08; for A18G A21G U49C U74C, 0.42. As for A18G C34U C40A, the self-cleavage worked out at 0.07. For the variant A18U A35G U43C U54C, the self-cleavage worked out at 0.39. As for A18G C40U U43C U54C A56U, the self-cleavage amounted to 0.17. Consider A18U C37U U58C U69C, for which the self-cleavage was 0.06. For A18G A45G U60A U80G, the self-cleavage was 0.19. A18U A20G U26C C39U A56U U67A: the self-cleavage amounted to 0.06.

The record behind these values is the RNAGym collection of RNA variant scans (doi:10.1093/nar/gkz1192).
